Source: PubChem BioAssay AID485294 (National Center for Advancing Translational Sciences (NCATS), 2010)
The whole screen tested about 370,000 compounds, of which about 150 (0.041%) were called active. The shares of active, inactive and inconclusive entries below differ from those in the screen. Calls come from the whole dose curve; as a rule, active = well fitted inhibition curve with a large enough effect; inconclusive = small, poorly fitted or top-dose-only effect; inactive = flat fitted curve, though single readings scatter. No potency is given beside an inconclusive call; the fits are too rough.

These compounds were tested against Beta-lactamase (Escherichia coli (strain K12)) (UniProt P00811) (assay: qHTS Inhibitors of AmpC Beta-Lactamase (assay with detergent)). Settings: AmpC hydrolysis of nitrocefin, absorbance 480 nm, 0.01% Triton; activity change, negative = inhibition: at 114 µM (top of the series).
Chain of UniProt P00811 (P00811 whole entry, looked up): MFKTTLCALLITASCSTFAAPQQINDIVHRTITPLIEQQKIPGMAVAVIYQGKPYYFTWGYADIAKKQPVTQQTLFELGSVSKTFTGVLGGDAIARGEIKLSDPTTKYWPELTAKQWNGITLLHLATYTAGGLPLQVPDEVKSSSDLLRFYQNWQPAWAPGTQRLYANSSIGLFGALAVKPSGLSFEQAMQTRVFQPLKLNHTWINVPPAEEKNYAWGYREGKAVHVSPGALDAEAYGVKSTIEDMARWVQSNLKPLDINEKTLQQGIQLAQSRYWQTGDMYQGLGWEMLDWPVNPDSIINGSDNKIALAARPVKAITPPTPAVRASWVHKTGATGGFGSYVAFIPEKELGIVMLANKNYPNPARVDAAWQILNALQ
Method in brief: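 20 mM phosphate pH 7.0 + 0.01% (detergent screen) or 0.0001% Triton X-100; 5.3 nM AmpC reagent; cpd preinc 15 min RT; nitrocefin (800 uM stock) to start; A480 q20 s × 4 min; Activity was normalised to no-enzyme and no-compound control wells.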
Note: nearly all actives have a fitted effect of over 25% in size.
Potency is the fitted concentration of half-maximal effect; tags give direction and shape of the fitted curve.
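Throughout, for activity change, negative = inhibition: 0% = no-compound wells and -100% = no-enzyme wells.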

Question: With `Cc1cnc(C(=O)NNC(=O)c2ccc(Br)cc2)cn1` as the compound, how does the Potency read?
Answer: inconclusive [inhibitor, full curve]

Question: With `OC(COc1ccc2c(c1)OCO2)CN1CCN(c2ccc(F)cc2)CC1` (configuration not stated) as the compound, how does the Potency read?
Answer: inconclusive [inhibitor, partial curve]

Question: Which “activity change, negative = inhibition” value does the source give for `COc1cc(OC)c(NC(=O)c2ccc3c(c2)N(Cc2ccc(C)cc2)CCS3)cc1Cl` here?
Answer: inactive: 10.8%

Question: `CCn1nc(C)c(NC(=O)Nc2cccc(Cl)c2Cl)c1C` was tested. Which Potency did it give?
Answer: inconclusive [inhibitor, full curve, poor fit]

Question: `Cc1c(C(=O)Oc2cccc3cccnc23)oc2ccccc12` was tested. Which “activity change, negative = inhibition” value did it give?
Answer: inactive: -4.49%

Question: Which Potency does the source give for `Cc1cccc(C2N=C(N)Nc3nc4ccccc4n32)c1` (configuration not stated) here?
Answer: inconclusive [inhibitor, partial curve, poor fit]

Question: Which “activity change, negative = inhibition” value does the source give for `O=C(Cc1ccccc1)Nc1cccc(-c2nnc(-c3ccco3)o2)c1` here?
Answer: inactive: 6.78%

Question: `COc1cc(/C=N/NC(=S)N/N=C/c2cc(OC)c(OC)c(OC)c2)cc(OC)c1OC` was tested. Which “activity change, negative = inhibition” value did it give?
Answer: inactive: 6.26%

Question: For `O=C1C2CC=CCC2C(=O)N1CC1CCCO1` (configuration not stated), which Potency is on record?
Answer: inconclusive [inhibitor, full curve]

Question: For `O=C(Cc1ccc(Br)cc1)Nc1ccc(Cl)cc1`, which “activity change, negative = inhibition” value is on record?
Answer: inactive: -10.8%

Question: `CCc1ccc(C(=O)c2cn(CC(=O)Nc3ccc4c(c3)OCO4)c3ccc(F)cc3c2=O)cc1` was tested. Which “activity change, negative = inhibition” value did it give?
Answer: inactive: 0.776%

Question: Which Potency does the source give for `COc1ccc(/C=C/c2nc(-c3ccccc3O)n[nH]2)cc1OC` here?
Answer: inconclusive [inhibitor, full curve, poor fit]

Question: Which Potency does the source give for `Cc1ccc(Nc2nnc(SCc3ccccc3)s2)cc1` here?
Answer: inconclusive [inhibitor, partial curve, poor fit]

Question: Which Potency does the source give for `O=C(CSc1nnc(-c2ccco2)o1)c1ccccc1Cl` here?
Answer: inconclusive [inhibitor, full curve, poor fit]

Question: With `CCc1ccccc1NC(=O)CN1C(=O)C2CCCN2c2ncc(Cl)cc21` (configuration not stated) as the compound, how does the Potency read?
Answer: inconclusive [inhibitor, full curve, poor fit]

Question: How did the “activity change, negative = inhibition” value turn out when `Cn1cnnc1-c1cccc(NC(=O)c2cc(F)c(F)cc2Cl)c1` was run?
Answer: inactive: -0.464%

Question: How did the “activity change, negative = inhibition” value turn out when `COc1ccccc1NC(=O)c1ccc2nsnc2c1` was run?
Answer: inactive: -3.14%

Question: How did the Potency turn out when `Cc1ccc(OCCn2cc(/C(N)=N/O)c3ccccc32)cc1C` was run?
Answer: inconclusive [inhibitor, single point]

Question: For `O=C(CN1C(=O)CCS(=O)(=O)c2ccccc21)Nc1ccc2c(c1)OCCO2`, which Potency is on record?
Answer: inconclusive [inhibitor, full curve]

Question: With `Cc1ccc(/C=C/c2nnc(-c3cccs3)o2)cc1` as the compound, how does the Potency read?
Answer: inconclusive [inhibitor, single point]

Question: How did the “activity change, negative = inhibition” value turn out when `CCOC(=O)c1ccc(NCc2cccnc2)cc1` was run?
Answer: inactive: -4.51%

Question: `COc1ccc(C(=O)n2c(SC)nc3cc4c(cc32)OCCO4)cc1` was tested. Which Potency did it give?
Answer: inconclusive [inhibitor, full curve]

Question: For `Cc1cc(NCc2ccccn2)n2ncc(-c3ccc(Cl)cc3)c2n1`, which “activity change, negative = inhibition” value is on record?
Answer: inactive: 13.4%

Question: For `Cc1cnc(CNC(=O)c2ccc3oc(Cc4ccc(Cl)cc4)nc3c2)cn1`, which Potency is on record?
Answer: inconclusive [inhibitor, full curve, poor fit]

Question: How did the Potency turn out when `CCc1ccc(C(=O)NNC(=O)CN2C(=O)NC3(CCCC3)C2=O)cc1` was run?
Answer: inconclusive [inhibitor, full curve, poor fit]

Question: For `Cc1cc(C)c(C#N)c(N2CCN(C(=O)C3COc4ccccc4O3)CC2)n1` (configuration not stated), which “activity change, negative = inhibition” value is on record?
Answer: inactive: -0.792%

Question: Which “activity change, negative = inhibition” value does the source give for `Cc1ccc(S(=O)(=O)N2CCN(C(=O)Cn3cnc4c3c(=O)n(C)c(=O)n4C)CC2)cc1C` here?
Answer: inactive: -3.67%

Question: Which Potency does the source give for `O=C(NCc1nc(-c2ccccc2)no1)c1ccc2c(c1)OCO2` here?
Answer: inconclusive [inhibitor, full curve]

Question: How did the “activity change, negative = inhibition” value turn out when `O=C(COC(=O)CCSc1ccccc1)NCc1ccccc1Cl` was run?
Answer: inactive: -7.83%

Question: With `Cn1cccc1C(=O)C(=O)Nc1ccccc1C(F)(F)F` as the compound, how does the Potency read?
Answer: inconclusive [inhibitor, single point]

Question: For `COC(=O)c1ccsc1NC(=O)CN1CCN(c2ccc(F)cc2)CC1`, which Potency is on record?
Answer: inconclusive [inhibitor, full curve, poor fit]

Question: Which “activity change, negative = inhibition” value does the source give for `COc1cccc(NC(=O)Nc2nnc(N3C(C)CCCC3C)s2)c1` (configuration not stated) here?
Answer: inactive: -0.188%

Question: How did the Potency turn out when `Cc1ccc(/C=C2/Sc3ccc(C(=O)N4CCN(C)CC4)cc3NC2=O)cc1` was run?
Answer: inconclusive [inhibitor, full curve, poor fit]

Question: `COCCN(C(=O)COC(=O)CCC1CCCC1)c1c(N)n(Cc2ccccc2)c(=O)[nH]c1=O` was tested. Which Potency did it give?
Answer: inconclusive [inhibitor, partial curve, poor fit]

Question: Which “activity change, negative = inhibition” value does the source give for `CCc1nnc(NS(=O)(=O)c2ccc(NC(=O)c3cc(Cl)ccc3OC)cc2)s1` here?
Answer: inactive: 4.21%

Question: For `CCCc1cc(-c2nc(N)ncc2-c2ccc3c(c2)OCCCO3)c(O)cc1OC`, which Potency is on record?
Answer: inconclusive [inhibitor, partial curve, poor fit]

Question: Which Potency does the source give for `Cn1c(=O)c2c(nc(Cc3ccc(N)cc3)n2C)n(C)c1=O` here?
Answer: inconclusive [inhibitor, single point]

Question: Which Potency does the source give for `C1CCCC(N2CCNCC2)CC1` here?
Answer: inconclusive [inhibitor, partial curve, poor fit]

Question: `COc1ccc(NC(=O)COC(=O)c2cc(OC)c(OC)cc2NC(=O)c2ccco2)cc1OC` was tested. Which Potency did it give?
Answer: inconclusive [inhibitor, single point]

Question: Which Potency does the source give for `NC(=O)c1c(NC(=O)c2cc3ccccc3o2)sc2c1CCC2` here?
Answer: inconclusive [inhibitor, partial curve, poor fit]

Question: For `Cc1cc(Br)ccc1NC(=O)c1sc2nc3n(c(=O)c2c1C)CCCC3`, which “activity change, negative = inhibition” value is on record?
Answer: inactive: 22.3%

Question: With `COc1ccc(CCN(C)C(=O)CCNC(=O)c2ccc(Br)cc2)cc1OC` as the compound, how does the “activity change, negative = inhibition” value read?
Answer: inactive: 2.09%

Question: `Cc1ccc(-c2cnc3ccccc3n2)cc1C` was tested. Which “activity change, negative = inhibition” value did it give?
Answer: inactive: -2.59%

Question: With `O=C(CSc1ncccn1)NCc1cccc(Cl)c1` as the compound, how does the “activity change, negative = inhibition” value read?
Answer: inactive: -4.81%

Question: With `CCS(=O)(=O)C1=NSC2=NC(=O)/C(=C\c3ccc(OC(=O)c4ccco4)c(OC)c3)C(=N)N21` as the compound, how does the “activity change, negative = inhibition” value read?
Answer: inactive: -0.537%

Question: How did the Potency turn out when `COc1ccc(CCNC(=O)CCC(=O)N2CCOc3ccccc32)cc1OC` was run?
Answer: inconclusive [inhibitor, partial curve, poor fit]

Question: How did the Potency turn out when `CC(C)CC(=O)Nc1ccc(F)c(Cl)c1` was run?
Answer: inconclusive [inhibitor, full curve]
